About 540 (0.36%) of roughly 150,000 compounds showed an effect of 50% or more. The list shows a part of the results.

For this experiment, the system named is Plasmodium falciparum. As to the kind of experiment: Primary screen in NF54 nanoGlo assay, in single point, at 2uM, 72h; a lower Z score goes with more inhibition. Type of experiment: functional, Erythrocyte. The note with it: timepoint 72 hour.
Take `Cc1cn(-c2ccccc2Cl)nc1NC(=O)N[C@H]1CCCOC1`: the “% Inhibition” value is listed as -10% and the Z score worked out at 1.4.
The corresponding values for `COc1ccc(N2C(=O)C3C4CCCC4CN3C2=O)cc1NS(C)(=O)=O` (configuration not stated) are -8% and 0.95.
For `Cc1ccc([C@]2(C)NC(=O)N(Cc3cccc(F)c3)C2=O)o1` the same measures were -9% and 0.73.
For `COc1cc(OC)cc(Oc2ccc(CNCc3n[nH]c(C)n3)cc2)c1` the same measures were -13% and 1.17.
`CCC(=O)N1CCC(NC(CN2CCC(C)CC2)c2cccs2)C1` (configuration not stated): the “% Inhibition” value is recorded as -7% and the Z score came out at 1.34.
On to `O=S(=O)(Nc1cccc(C2OCCCO2)c1)c1ccccc1`, for which the “% Inhibition” value was -5% and the Z score worked out at 0.86.
For `Cc1cccnc1OC[C@H]1CCCN1C` the same measures were -1% and 0.12.
`Clc1ccccc1OCc1ccc(-c2nc3c4ccccc4ncn3n2)o1`: the “% Inhibition” value is on record as -13% and the Z score was determined as 1.71.
With `C[C@@H](C(=O)Nc1ccc2c(c1)CCN(C)C2=O)n1cnc2c(N)ncnc21`, the “% Inhibition” value is given as -23% and the Z score is 2.66.
For `Cc1cccc(NC(=O)c2cn3c4c(cccc4c2=O)C[C@@H]3C)c1` the same measures were 7% and -0.88.
The corresponding values for `Cc1nc(N(C)CC(C)(C)S(C)(=O)=O)c2c(C)csc2n1` are 38% and -3.86.
For `COc1cc(OC)cc(C(=O)Nc2ccc3nc(N4CCC(C)CC4)cc(C)c3c2)c1` the same measures were 58% and -3.66.
Regarding `O=C(O)c1ccc(C[C@H]2CCCN(C(=O)Cc3cccnc3)C2)cc1`, the “% Inhibition” value was -12% and the Z score amounted to 2.4.
In the case of `CS(=O)(=O)N1CCC(C(=O)N2CCN(S(=O)(=O)c3ccccc3)CC2)CC1`, the “% Inhibition” value is listed as -1% and the Z score is listed as 0.14.
The corresponding values for `O=C(NCCOc1ccc(F)cc1F)NCCC1(O)CCC1` are -26% and 2.6.
For `O=C(c1nn(-c2ccccc2)c(=O)c2ccccc12)N1CCC[C@H]1c1nnc2ccccn12` the same measures were -6% and 1.19.
The corresponding values for `COC(=O)c1cc(C2CC2)nc2c1c(-c1ccc(F)cc1)nn2[C@H]1CCS(=O)(=O)C1` are 2% and -0.3.
As for `O=S(=O)(NC1CC2CCC1C2)c1cc(Cl)ccc1Cl` (configuration not stated), the “% Inhibition” value is -14% and the Z score stood at 1.87.
The corresponding values for `O=C(NCC1CCCC(O)C1)C1CCN(S(=O)(=O)c2cc(Cl)ccc2Cl)CC1` (configuration not stated) are -14% and 2.36.
For `Cc1c(-c2noc(C(=O)NC3CCN(Cc4ccccc4)CC3)n2)oc2ccccc12` the same measures were -12% and 1.42.
For `COc1cc(-c2nc(CN(C)C[C@H]3CCCO3)c(C)o2)cc2c1OCO2` the same measures were 1% and -0.19.
For the compound `COc1cc2c(cc1OC)CN(C(=O)Cn1c(C(F)(F)F)ccc(C(N)=O)c1=O)CC2`, the “% Inhibition” value is recorded as -12% and the Z score was determined as 1.91.
The corresponding values for `CC(C)[C@H](Cc1ccc(F)cc1)NS(C)(=O)=O` are -8% and 0.99.
For `CC[C@H](C)[C@H](NC(=O)c1ccccn1)c1nc2ccccc2[nH]1` the same measures were -12% and 1.5.
The corresponding values for `CCN(C(=O)N(CC)[C@H]1CCN(CC(F)(F)F)C1)C(C)C` are 21% and -2.73.
As to `Fc1ccc(COc2nccs2)c(F)c1`, the “% Inhibition” value amounted to 10% and the Z score was -1.54.
For `Cc1cccc(N2CCN(C(=O)Cn3cccc3-c3nc(-c4ccccc4)cs3)CC2)c1C` the same measures were 5% and -0.74.
Turning to `CC1CN(Cc2ccccc2)CCC1N(C)Cc1csc(-c2ccccn2)n1` (configuration not stated), the “% Inhibition” value is listed as -9% and the Z score is reported as 1.03.
For `O=C(C[C@@H]1O[C@H](CNCc2ccccn2)[C@@H](O)[C@H]1O)NCc1ccc(F)cc1` the same measures were 31% and -3.45.
The corresponding values for `CC(C)c1n[nH]c(NC(=O)c2ccc3nnnn3c2)n1` are -12% and 1.97.
The corresponding values for `C[C@@H](CCn1cccn1)OC(=O)c1cnn(C)c1` are -14% and 1.6.
As for `COc1cncc(C(Nc2ncc(F)c(N(C)C)n2)[C@H]2C[C@H](O)C2)c1` (some centres not stated), the “% Inhibition” value is -8% and the Z score was 1.47.
The corresponding values for `Cn1cc(NS(=O)(=O)c2cn[nH]c2C(C)(C)C)cn1` are -5% and 0.72.
For `COCC(=O)NCC1(c2ccc([C@H](C)O)s2)CCCC1` the same measures were -6% and 0.81.
Turning to `Cc1c(C(=O)NCc2ccc(N(C)C)cc2)cccc1-n1nnc2cccnc21`, the “% Inhibition” value was -4% and the Z score is recorded as 0.81.
Turning to `CC1(C)NC(=O)N(Cc2noc(C3(c4ccccc4)CCC3)n2)C1=O`, the “% Inhibition” value was -8% and the Z score amounted to 0.76.
For `Cc1cc(C(=O)N[C@@H]2CCC[C@@H](C(=O)N(C)Cc3cccnc3)CC(=O)N(C)C2)c(C(F)(F)F)o1` the same measures were -6% and 1.1.
The corresponding values for `CC(NC1CC(=O)N(C2CC2)C1)c1cccc(-c2ccncc2)c1` (configuration not stated) are -3% and 0.6.
The corresponding values for `CCc1nc(CNc2cc(OC)c(Br)cn2)cs1` are 29% and -3.33.
As to `Cc1nc(O)cc(CCNC(=O)Nc2ccc3c(c2)O[C@@H](C)C(=O)N3C)n1`, the “% Inhibition” value is recorded as -4% and the Z score came out at 0.93.
For `CN1CCC(C(=O)N2CCCC(C(F)(F)F)C2)CC1=O` (configuration not stated) the same measures were -4% and 0.51.

The % Inhibition is the change of the read-out against control, counted positive when it falls.
